One test addresses His标签人PD-L1抗原 (human) (UniProt Q9NZQ7). Kind of test: ELISA, His-tagged human PD-L1 coated at 2.0 μg/mL; ratio = EC50 of chimeric antibody C1 (chC1) / EC50 of humanised antibody x 100%.
A further test has as its target 生物素化的PD-L1抗原 (UniProt Q9NZQ7). In words: competition ELISA, biotinylated PD-L1 on streptavidin, competitor PD-1 mFc 2.0 μg/mL; ratio = IC50 of chimeric antibody / IC50 of humanised antibody x 100%.

B1: 人源化抗PD-L1单域抗体C1-hu17 (Fc fusion)
heavy: EVQLLESGGGLVQPGGSLRLSCAASGAAPCMAWFRQAPGKGLEGVAASVRGGLSPYYADSVKGRFTISHDIPKNTMYLQMNSLRAEDTAVYYCAARATFYRCEGDASSYTYWGQGTLVTVSSGGGGS[sequence of human IgG4 Fc with S228P (EU numbers) not given]
As to B1, the 相对结合活性，% in the test with His标签人PD-L1抗原 (human) was 75.2%. For the same molecule, the 相对竞争抑制活性，% with 生物素化的PD-L1抗原 is 86.8%.

B2: 人源化抗PD-L1单域抗体C1-hu21 (Fc fusion)
heavy: EVQLVESGGGLVQPGGSLRLSCAASGAAPCMAWFRQAPGKEREGVAASVRGGLSPYYADSVKGRFTISHDIPKNTMYLQMNSLRAEDTAVYYCAARATFYRCEGDASSYTYWGQGTLVTVSSGGGGS[sequence of human IgG4 Fc with S228P (EU numbers) not given]
Turning to B2, in the test with His标签人PD-L1抗原 (human), the 相对结合活性，% was 76%. For the same molecule, the 相对竞争抑制活性，% with 生物素化的PD-L1抗原 amounted to 101%.

B3: 人源化抗PD-L1单域抗体C1-hu18 (Fc fusion)
heavy: EVQLVESGGGLVQPGGSLRLSCAASGAAPCMAWFRQAPGKGLEGVAASVRGGLSPYYADSVKGRFTISHDIPKNTMYLQMNSLRAEDTAVYYCAARATFYRCEGDASSYTYWGQGTLVTVSSGGGGS[sequence of human IgG4 Fc with S228P (EU numbers) not given]
As to B3, the 相对结合活性，% in the test with His标签人PD-L1抗原 (human) came to 83.6%. For the same molecule, in the test with 生物素化的PD-L1抗原, the 相对竞争抑制活性，% was 93.4%.

B4: 人源化抗PD-L1单域抗体C1-hu20 (Fc fusion)
heavy: EVQLVESGGGLVQPGGSLRLSCAASGAAPCMAWFRQAPGKGREGVAASVRGGLSPYYADSVKGRFTISHDIPKNTMYLQMNSLRAEDTAVYYCAARATFYRCEGDASSYTYWGQGTLVTVSSGGGGS[sequence of human IgG4 Fc with S228P (EU numbers) not given]
As for B4, the 相对结合活性，% with His标签人PD-L1抗原 (human) stood at 79.4%. Further, the 相对竞争抑制活性，% with 生物素化的PD-L1抗原 was found to be 99.7%.

B5: 人源化抗PD-L1单域抗体C1-hu7 (Fc fusion)
heavy: EVQLLESGGGLVQPGGSLRLSCAASGAAPCMAWFRQAPGKGLEGVAASVRGGLSPYYADVKGRFTISHDIPKNTMYLQMNSLRAEDTAVYYCAARATFYRCEGDASSYTYWGQGTLVTVSSGGGGS[sequence of human IgG4 Fc with S228P (EU numbers) not given]
For the molecule B5, the 相对结合活性，% in the test with His标签人PD-L1抗原 (human) worked out at 89.8%. The 相对竞争抑制活性，% with 生物素化的PD-L1抗原 is 84.8%.

B6: 人源化抗PD-L1单域抗体C1-hu8 (Fc fusion)
heavy: EVQLVESGGGLVQPGGSLRLSCAASGAAPCMAWFRQAPGKGLEGVAASVRGGLSPYYADVKGRFTISHDIPKNTMYLQMNSLRAEDTAVYYCAARATFYRCEGDASSYTYWGQGTLVTVSSGGGGS[sequence of human IgG4 Fc with S228P (EU numbers) not given]
B6: in the test with His标签人PD-L1抗原 (human), the 相对结合活性，% stood at 91.2%. Further, in the test with 生物素化的PD-L1抗原, the 相对竞争抑制活性，% came out at 93%.

B7: 人源化抗PD-L1单域抗体C1-hu10 (Fc fusion)
heavy: EVQLVESGGGLVQPGGSLRLSCAASGAAPCMAWFRQAPGKELEGVAASVRGGLSPYYADVKGRFTISHDIPKNTMYLQMNSLRAEDTAVYYCAARATFYRCEGDASSYTYWGQGTLVTVSSGGGGS[sequence of human IgG4 Fc with S228P (EU numbers) not given]
For B7, in the test with His标签人PD-L1抗原 (human), the 相对结合活性，% was found to be 88.2%. In addition, the 相对竞争抑制活性，% with 生物素化的PD-L1抗原 turned out to be 98.1%.

For the origin of these results see CN115246884A (SHANGHAI JUNSHI BIOSCIENCES CO LTD; JUNMENG BIOSCIENCES CO …, dated 2022).
